Data published in the supplement of paper PMC3334620.
In all, about 33,000 sequences were measured (“E-score (-0.5 to 0.5)”: median about -0.035, highest 2% from about 0.35 on). The list shows a part of the results.

Biological target: T1, Pdr3 (UniProt P33200)
T1 sequence: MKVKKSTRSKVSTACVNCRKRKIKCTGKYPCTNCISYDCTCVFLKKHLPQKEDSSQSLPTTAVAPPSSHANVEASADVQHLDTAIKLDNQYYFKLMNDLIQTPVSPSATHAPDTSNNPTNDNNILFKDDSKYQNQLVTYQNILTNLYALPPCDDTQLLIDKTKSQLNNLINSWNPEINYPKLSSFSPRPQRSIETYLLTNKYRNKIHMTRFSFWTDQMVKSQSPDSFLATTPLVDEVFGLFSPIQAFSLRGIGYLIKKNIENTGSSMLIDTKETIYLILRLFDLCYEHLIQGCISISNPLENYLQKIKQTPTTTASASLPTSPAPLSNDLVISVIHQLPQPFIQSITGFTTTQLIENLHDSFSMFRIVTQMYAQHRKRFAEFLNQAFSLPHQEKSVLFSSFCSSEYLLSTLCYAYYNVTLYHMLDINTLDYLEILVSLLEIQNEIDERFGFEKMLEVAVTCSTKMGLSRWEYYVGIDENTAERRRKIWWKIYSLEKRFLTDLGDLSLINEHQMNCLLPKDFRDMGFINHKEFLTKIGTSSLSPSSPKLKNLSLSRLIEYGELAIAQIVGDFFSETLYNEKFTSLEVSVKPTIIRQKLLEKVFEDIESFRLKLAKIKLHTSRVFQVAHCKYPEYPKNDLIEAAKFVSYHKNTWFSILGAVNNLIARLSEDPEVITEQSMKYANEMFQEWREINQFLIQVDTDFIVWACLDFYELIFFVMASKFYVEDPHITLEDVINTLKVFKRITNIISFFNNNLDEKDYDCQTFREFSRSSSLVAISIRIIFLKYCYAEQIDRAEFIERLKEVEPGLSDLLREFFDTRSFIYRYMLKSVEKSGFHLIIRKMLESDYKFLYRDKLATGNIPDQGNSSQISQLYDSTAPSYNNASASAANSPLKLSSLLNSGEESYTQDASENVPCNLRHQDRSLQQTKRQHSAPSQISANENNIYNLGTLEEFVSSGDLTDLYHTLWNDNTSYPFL
Experiment: PBM E-score (8-mer binding enrichment) (E-score (-0.5 to 0.5)); higher = stronger / more preferred TF binding; most listed sequences are background and not binding sites
Settings: protein concentration: 200 nM; construct: GST-full length
Procedure, shortened: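 E-scores (a modified Wilcoxon-Mann-Whitney statistic) were assigned by the Universal PBM Analysis Suite to every ungapped eight-base word pooled with its reverse complement. The input came from universal all-10-mer Agilent arrays made double-stranded by primer extension and probed with GST-tagged yeast transcription factors at about 100-200 nM. Fluorescent anti-GST detected bound protein, and masliner normalised the scans.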

| Sequence | PBM E-score |
| --- | --- |
| ACCAAACA | -0.0428 |
| ACAGCCCC | 0.0468 |
| CAGAAATG | -0.189 |
| GGGTGAGA | -0.0394 |
| CGGTTCAG | -0.134 |
| AGTGATCG | -0.104 |
| ATGAACGG | 0.0922 |
| CTAGCGTC | -0.215 |
| ACTGTATA | -0.0502 |
| AGGATCAC | -0.231 |
| CCCTCAAG | -0.267 |
| CTGACGTA | -0.156 |
| CTCGGTGA | 0.103 |
| CAAAGAAC | 0.00601 |
| ACCTCAAC | -0.0674 |
| CCATCAGA | -0.162 |
| GTATAGAA | -0.0532 |
| ATACCATA | 0.0258 |
| CGTTGAGC | 0.0731 |
| ACGCCCGT | 0.131 |
| TGGACGAA | -0.058 |
| AAATAACT | 0.0711 |

| Sequence | PBM E-score |
| --- | --- |
| CATTAAGG | -0.0219 |
| CGACACCG | 0.153 |
| AGCTATGG | -0.0641 |
| CTGGTGCC | -0.206 |
| CAACCTAA | -0.107 |
| GAAAGGCA | 0.0934 |
| GGAGTGGA | 0.0438 |
| ACGGCGAA | 0.128 |
| ATCTGTAC | -0.013 |
| CATGAAAC | 0.0519 |
| TACGTCCA | -0.17 |
| CCCTGGTA | -0.205 |
| GTCGACGA | 0.138 |
| ATTCTGCG | 0.106 |
| AATCTGGC | -0.139 |
| GATGCTCA | 0.0461 |
| AACGAGCG | -0.00371 |
| AAGTCGCG | 0.108 |
| TAAAATAA | 0.0341 |
| CGGACTTC | 0.253 |
| GCTCGACC | -0.0284 |
| ACAGTAAT | -0.0206 |

| Sequence | PBM E-score |
| --- | --- |
| GGACAGTA | 0.0864 |
| CACCTGAA | -0.0512 |
| CTGCTTTA | 0.137 |
| TCGGTTCA | -0.231 |
| CACCTATC | -0.00292 |
| CTACCGGA | 0.335 |
| AGTGACAG | -0.057 |
| GATCAGAA | -0.118 |
| CATTCAGC | -0.141 |
| AAGGGCAA | 0.162 |
| ATACCCCG | 0.289 |
| CATGTCCA | 0.0313 |
| GTCGCGCA | 0.0751 |
| CTACCCAA | -0.193 |
| CTACAAAG | -0.116 |
| GGCCTGAA | -0.112 |
| GGAAACCA | 0.122 |
| ACTTGTCG | 0.0857 |
| CAATCAAC | 0.0774 |
| AGTTTCTC | -0.00229 |
| AAATGTAA | 0.0762 |
| ACAGCGTA | -0.09 |

| Sequence | PBM E-score |
| --- | --- |
| GAAGGACA | 0.0636 |
| ACTCTACG | -0.176 |
| AACAGGCG | -0.0423 |
| GCGTGGCA | -0.096 |
| ATAATGTA | -0.164 |
| CAGTGTTA | 0.0977 |
| GATCGACC | 0.0705 |
| ACCCGACC | 0.101 |
| TAGGGCAA | -0.108 |
| CAGTCATA | -0.137 |
| CCGCTTGA | 0.184 |
| CAGCTATG | -0.255 |
| CATGGACA | -0.154 |
| GACCCAAA | -0.0474 |
| TAAGTGAA | -0.112 |
| CGCCACCC | -0.0704 |
| GGCAAGAC | -0.0278 |
| ATCACCTG | -0.061 |
| GCCCTCCC | -0.0721 |
| AGCGATAT | -0.0117 |
